# Experimental data published in PubChem BioAssay AID720507 (National Center for Advancing Translational Sciences (NCATS), 2013).
# The whole screen tested about 2,300 compounds, of which about 140 (6.1%) were called active. The inconclusive results got no clear call from the source; some entries with a clear call stand among them for comparison. Calls follow the shape of the dose curve; as a rule, active = well fitted activation curve with a large enough effect; inconclusive = small, poorly fitted or top-dose-only effect; inactive = flat fitted curve, though single readings scatter. No potency is given beside an inconclusive call; the fits are too rough.
# Target: D(2) dopamine receptor (Homo sapiens) (UniProt P14416)
# Experiment: qHTS of D3 Dopamine Receptor Agonist: D2 Dopamine Receptor B-arrestin Agonist Counterscreen; also: nearly all actives have a fitted effect of over 70% in size
# Conditions: DiscoveRx PathHunter D2 beta-arrestin, luminescence, 90 min; series mostly up to 76.9 µM
# Description: D3 DARs represent a very important target for the treatment of several neuropsychiatric disorders. Indeed, one of the most promising therapeutic applications for the D3 DAR is in the area of addiction and related disorders. […] These findings have been observed with a number of addictive substances including cocaine, amphetamine, nicotine, and alcohol. […] Increased D3 DAR activity can thus lead to neuroprotective and neurorestorative actions in the CNS. […] This assay is used to profile the activity of the identified D3 dopamine receptor agonist against the D2 dopamine receptor. Greater than 10% of the maximum dopamine agonist response is desired for this assay. NIH Molecular Libraries Probe Production Centers Network [MLPCN] NIH Chemical Genomics Center [NCGC] MLPCN Grant: NS064831 Assay Submitter (PI): David Sibley
# DiscoveRx D2 cells were thawed from frozen stock and seeded at 2,100 cells/ 3 uL/well media (DiscoveRx Plating Reagent 2) with MultiDrop Combi dispenser (Thermo Scientific, Logan, UT) onto white tissue culture treated 1536-well Aurora plates (Brooks Automation, Chelmsford, MA) and allowed to attach overnight at 37 deg C, 5% CO2. Next, 23 nL/well of compound solutions in DMSO were added with a pintool transfer (Kalypsis, San Diego, CA). […] The rest of the plate was dispensed with buffer only, 1 uL/well as well. The cells were stimulated by compounds or dopamine control for 90 minutes at 37 deg C, 5% CO2, after which 1.5 ul/well of DiscoveRx detection reagent was added with BioRAPTR FRD dispenser. The detection reagent was prepared by mixing of Galacton Star Substrate, Emerald II solution and PathHunter buffer (supplied by the assay kit) together at 1:5:19 proportion accordingly just prior to dispensing. The plates were incubated at ambient temperature for 1 hour and then the luminescent signal was read on ViewLux plate reader (PerkinElmer, Waltham, MA).
# Potency is read from the fitted curve at half-maximal effect; tags tell the direction and shape of the fitted curve.
# UniProt P14416, sequence (P14416 whole entry, looked up): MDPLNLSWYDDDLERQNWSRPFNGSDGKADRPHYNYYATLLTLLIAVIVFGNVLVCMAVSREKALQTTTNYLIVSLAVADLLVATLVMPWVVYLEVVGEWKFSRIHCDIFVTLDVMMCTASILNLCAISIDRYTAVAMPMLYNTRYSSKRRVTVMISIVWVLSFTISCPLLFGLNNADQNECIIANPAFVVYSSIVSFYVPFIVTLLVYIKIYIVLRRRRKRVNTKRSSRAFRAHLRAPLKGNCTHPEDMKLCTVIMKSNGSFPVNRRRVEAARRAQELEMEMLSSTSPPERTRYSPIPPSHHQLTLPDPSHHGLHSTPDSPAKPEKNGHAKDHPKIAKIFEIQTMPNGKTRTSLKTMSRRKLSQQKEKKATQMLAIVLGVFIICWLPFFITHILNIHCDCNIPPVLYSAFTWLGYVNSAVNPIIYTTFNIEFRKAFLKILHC
row,SMILES,Potency
1,c1cnc(N2CCN(Cc3ccc4c(c3)OCO4)CC2)cn1,"inconclusive [activator, full curve, poor fit]"
2,O=C(Nc1ccc(C(=O)NCCCN2CCN(c3ccccc3)CC2)cc1)C1=CSCCO1,"inconclusive [activator, full curve]"
3,O=C(O)C1CCCC2CN3CCc4c([nH]c5ccccc45)C3C(O)C21 (stereo unspecified),"inconclusive [activator, partial curve]"
4,COc1ccc(S(=O)(=O)N2CCCC2CNC(=O)C(=O)NC2CCCCCC2)cc1 (stereo unspecified),"inconclusive [activator, single point]"
5,O=C(CN1CCN(c2ccccn2)CC1)Nc1cccc(S(=O)(=O)N2CCCC2)c1,active: 28.2 µM
6,CCn1c(N2CCN(S(=O)(=O)c3ccccc3C(F)(F)F)CC2)nc2ccccc21,"inconclusive [activator, full curve]"
7,Cc1ccc(CN2CCN(c3ccccn3)CC2)s1,active: 0.158 µM
8,Clc1cccc(Cl)c1CN1CCN(c2ncccn2)CC1,"inconclusive [activator, partial curve]"
9,CC[n+]1c(/C=C/C=C/N(C(C)=O)c2ccccc2)sc2cc(OC)ccc21,"inconclusive [activator, full curve]"
10,Cc1cccc(C)c1NC(=O)NCCCN1CCN(c2ccccc2)CC1,"inconclusive [activator, full curve]"
11,Cc1ccc(S(=O)(=O)NCCC(=O)Nc2ccc(C)cc2C(=O)c2ccccc2)cc1,inactive
12,CCN1CCN(c2ncnc3scc(-c4ccc(C)cc4)c23)CC1,active: 2.82 µM
13,O=C(NCCCN1CCN(c2ccccc2F)CC1)C1CCCN(S(=O)(=O)c2cnc[nH]2)C1 (stereo unspecified),inactive
14,O=C(COC(=O)c1ccccn1)NC(=O)c1ccccc1,inactive
15,Cc1ccc(C)c(NC(=O)CCN2CCN(c3ccccc3F)CC2)c1,inactive
16,COc1ccccc1C(=O)NCCN1CCN(c2ccccc2)CC1,"inconclusive [activator, full curve]"
17,COc1ccc(OCc2cc(C(=O)NC3CCc4ccccc43)no2)c(Cl)c1 (stereo unspecified),inactive
18,CC(=O)c1cccc(OCC(O)CN2CCN(C(=O)c3ccco3)CC2)c1 (stereo unspecified),"inconclusive [activator, full curve, poor fit]"
19,Cc1[nH]c2ccccc2c1NC(=O)CN1CCN(C(=O)c2ccco2)CC1,"inconclusive [activator, full curve, poor fit]"
20,COc1ccc2oc(C(=O)Nc3cccc(S(=O)(=O)N4CCOCC4)c3)c(C)c2c1,inactive
21,Cc1cc(C)n2nc(C(=O)N3CCN(Cc4ccc5c(c4)OCO5)CC3)nc2n1,inactive
22,COc1ccc(/C=N/NC(=O)CCN2CCN(c3ccccc3)CC2)c(OC)c1OC,"inconclusive [activator, partial curve, poor fit]"
23,CCCN(CCC)CCCNC(=O)CC1Nc2ccccc2NC1=O (stereo unspecified),inactive
24,CSc1ccc(NC(=O)NCCCN2CCN(c3ccccc3F)CC2)cc1,"inconclusive [activator, partial curve]"
25,O=C(NCCN1CCN(c2ccccc2)CC1)Nc1ccc(Cl)cc1,"inconclusive [activator, partial curve]"
26,CCCCN(CC)CCCNC(=O)CN1C(=O)CSc2ccc(S(=O)(=O)N3CCOCC3)cc21,inactive

row,SMILES,Potency
1,CCOc1cc(CNCCc2ccc(S(N)(=O)=O)cc2)ccc1OCc1ccc(Cl)cc1,"inconclusive [activator, single point]"
2,CNC(=O)N(O)C1N(/N=C/c2cc(Br)ccc2O)C(=S)SC1(C)C (stereo unspecified),"inconclusive [activator, full curve]"
3,COC(=O)c1ccc(OCC(O)CN2CCN(C(=O)c3ccco3)CC2)c(OC)c1 (stereo unspecified),"inconclusive [activator, full curve, poor fit]"
4,CCC(=O)c1ccc(OCC(O)CN2CCN(c3ccccn3)CC2)cc1 (stereo unspecified),active: 2 µM
5,C1=CC2CC1CC2CN1CCN(c2ccccc2)CC1 (stereo unspecified),"inconclusive [activator, full curve]"
6,CCOc1ncccc1C(=O)N1CCN(Cc2ccc3c(c2)OCO3)CC1,active: 2.82 µM
7,CCc1ccc2c(CN3CCC(C(=O)OC)CC3)cc(=O)oc2c1,active: 8.91 µM
8,COc1ccc2nc3sc(C(=O)NCCN4CCc5ccccc5C4)cc3cc2c1,"inconclusive [activator, full curve]"
9,CC(C)(C)C1CCC(N2CCN(c3ccccc3)CC2)CC1 (stereo unspecified),"inconclusive [activator, full curve]"
10,CC(CCc1ccccc1)NCC(O)c1ccc(O)c(C(N)=O)c1 (stereo unspecified),"inconclusive [activator, full curve]"
11,Cc1cc(C)c(OCC(O)CN2CCN(c3ccccn3)CC2)c(C)c1 (stereo unspecified),active: 10 µM
12,O=C(COc1ccccc1[N+](=O)[O-])N(Cc1ccccc1)c1ccccn1,"inconclusive [activator, full curve]"
13,COCc1c(C(=O)N2CCN(Cc3ccc4c(c3)OCO4)CC2)oc2ccccc12,active: 10 µM
14,CN(CC(=O)Nc1ccc(Cl)c(C(F)(F)F)c1)C(=O)C1CC(=O)N(CCc2ccccc2)C1 (stereo unspecified),inactive
15,COc1cc(NC(=O)NCCN2CCN(c3ccccc3)CC2)cc(OC)c1OC,"inconclusive [activator, partial curve]"
16,O=C(NC(=S)N1CCN(Cc2ccccc2)CC1)c1ccco1,inactive
17,CNC(=S)N(CCc1c(C)[nH]c2ccc(OC)cc12)Cc1cccnc1,inactive
18,N#Cc1ccsc1NC(=O)CN1CCN(c2ccccn2)CC1,"inconclusive [activator, partial curve]"
19,COc1ccc(Nc2nc(N)nc(CN3CCN(c4ccccn4)CC3)n2)cc1,"inconclusive [activator, full curve]"
20,COc1ccc(OC)c(NC(=O)c2cccc(N3C(=O)C4C5CCC(C5)C4C3=O)c2)c1 (stereo unspecified),"inconclusive [activator, full curve]"
21,CCCc1ccc(OCC(O)CN2CCN(c3ccccc3)CC2)cc1 (stereo unspecified),"inconclusive [activator, full curve, poor fit]"
22,C=CCN1CCc2nc(N)sc2CC1,active: 0.0447 µM
23,COc1ccccc1N1CCN(Cc2ccsc2)CC1,inactive
24,FC(F)(F)c1ccccc1NC(=S)N1CCN(c2ccccn2)CC1,inactive
25,O=C(CCN1CCN(c2ccccc2)CC1)N/N=C/c1ccc(O)c(O)c1O,active: 31.6 µM
26,Clc1ccccc1CN1CCN(c2ncccn2)CC1,active: 20 µM

row,SMILES,Potency
1,OC(COc1ccc(Cl)c2ccccc12)CN1CCN(c2ccccn2)CC1 (stereo unspecified),"inconclusive [activator, full curve, poor fit]"
2,O=C(Nc1ccccc1F)c1ccc(CN2CCN(c3ccccc3)CC2)cc1,active: 17.8 µM
3,c1ccc(N2CCN(Cc3ccsc3)CC2)nc1,active: 0.708 µM
4,CSCCC(NC(=O)c1ccccc1)C(=O)NCCCSc1ccccc1 (stereo unspecified),inactive
5,CC1CCN(S(=O)(=O)c2ccc(NC(=O)CN3CCN(c4ccccc4)CC3)cc2)CC1,"inconclusive [activator, partial curve]"
6,CN(C)S(=O)(=O)c1ccc(N2CCCC2)c(C(=O)NNC(=O)COc2cccc(F)c2)c1,inactive
7,CCCn1c2ccccc2c2cnn(CC(=O)NCCCN3CCN(c4ccccc4)CC3)c(=O)c21,inactive
8,N#CC1=C(N)NC(SCC(=O)Nc2ccc(Br)cc2)=C(C#N)C12CCCCC2,inactive
9,O=C(c1ccco1)N1CCN(C(=O)C2CCN(S(=O)(=O)c3cccs3)CC2)CC1,inactive
10,Fc1ccccc1N1CCN(Cc2cnc(Cl)s2)CC1,active: 3.16 µM
11,COc1ccc(/C=C/C(=O)N2CCN(c3ccccn3)CC2)cc1OC,inactive
12,COc1ccc(NC(=O)c2ccc(CN3CCN(c4ccccc4)CC3)cc2)cc1OC,"inconclusive [activator, partial curve]"
13,c1ccc(CN2CCN(c3ncccn3)CC2)cc1,active: 2.51 µM
14,CNc1nc(N)c([N+](=O)[O-])c(Nc2cccc(F)c2)n1,inactive
15,COc1ccc2cc(C=O)n(C)c2c1,inactive
16,Cn1c(=O)cc(OCC(=O)NCCCN2CCN(c3ccccc3F)CC2)c2ccccc21,"inconclusive [activator, full curve, poor fit]"
17,CCOC(=O)N1CCC(N2CCCC(C(=O)c3ccccc3OC)C2)CC1 (stereo unspecified),"inconclusive [activator, full curve]"
18,CSCCCN1CC[C@@H](N2CCN(c3ccccc3F)CC2)[C@H](O)C1,"inconclusive [activator, full curve, poor fit]"
19,Cc1nnc(N2C(=O)C(O)=C(C(=O)c3ccco3)C2c2ccc(F)cc2)s1 (stereo unspecified),inactive
20,O=C(CCc1nc2ccccc2c(=O)[nH]1)N1CCN(C/C=C/c2ccccc2)CC1,"inconclusive [activator, partial curve, poor fit]"
21,CCC(c1nnnn1Cc1ccc2c(c1)OCO2)N1CCN(c2ccccc2)CC1 (stereo unspecified),"inconclusive [activator, partial curve]"
22,CC(CCC(=O)O)C1CCC2C3CCC4C[C@H](O)CCC4(C)C3CC(=O)C12C (stereo partly specified),inactive
23,COc1cc(CNCCN2CCOCC2)ccc1OCC(=O)NC(C)(C)C,inactive
24,O=C(NCCN1CCN(c2ccccc2)CC1)C1CCCN(S(=O)(=O)c2cnc[nH]2)C1 (stereo unspecified),"inconclusive [activator, full curve]"
